The campaign covered roughly 150,000 compounds. About 540 (0.36%) showed an effect of 50% or more. This is one part of the list.

For the test, the system named is Plasmodium falciparum. The test can be described thus: Primary screen in NF54 nanoGlo assay, in single point, at 2uM, 72h; a lower Z score goes with more inhibition. It is filed as functional, Erythrocyte. The following applies: timepoint 72 hour.
Take `COC(=O)c1csc(NC(=O)C2CCN(c3cc4c(nn3)CCC4)CC2)n1`: the “% Inhibition” value is 7% and the Z score is on record as -0.92.

Consider `O=C(NCCN1CCOCC1)c1nc(-n2cnnc2)ccc1Br`, for which the “% Inhibition” value is listed as -4% and the Z score worked out at 0.55.

Consider `Cc1cnc(C(=O)Nn2cnc3ccccc3c2=O)cn1`, for which the “% Inhibition” value was -7% and the Z score is listed as 0.96.

As for `O=C(NCc1nc2c(s1)COCC2)Nc1cc2cc[nH]c2cn1`, the “% Inhibition” value is listed as -8% and the Z score is recorded as 0.93.

For `O=C(NC1CCC(CC2CCC(NC(=O)C3CC3c3ccccc3)CC2)CC1)C1CC1c1ccccc1` (centres undefined), the “% Inhibition” value was -15% and the Z score was found to be 1.85.

With `COCCNC(=O)N1CC(=O)N(Cc2ccccc2)C1`, the “% Inhibition” value was -13% and the Z score was 1.22.

`COc1ccc(C)cc1S(=O)(=O)N(C)c1cnn(C)c1`: the “% Inhibition” value is reported as -5% and the Z score was determined as 0.68.

As to `COCC(C)(C#N)NC(=O)C1Cc2ccccc21` (centres undefined), the “% Inhibition” value is reported as 2% and the Z score is reported as -0.32.

As to `CC(C)Nc1ncc(Br)c(C(=O)N2CC[C@H](F)C2)n1`, the “% Inhibition” value turned out to be 7% and the Z score is on record as -0.91.

Take `Cn1c(CNC(=O)C2(C)CC3CCC2O3)nnc1C1CC1` (centres undefined): the “% Inhibition” value was -6% and the Z score amounted to 0.87.

As for `COc1cccc(N2CCN(C(=O)NCc3ccoc3)CC2(C)C)c1`, the “% Inhibition” value was found to be 0% and the Z score was -0.01.

Turning to `Cc1nnc(C(=O)N2CCC[C@H](S(=O)(=O)NC3CCCC3)C2)s1`, the “% Inhibition” value is -13% and the Z score was 1.87.

In the case of `O=C(Cc1cccnc1)N1CCC([C@H]2c3[nH]cnc3CCN2C(=O)Cc2ccccc2)CC1`, the “% Inhibition” value is listed as -10% and the Z score worked out at 1.51.

Regarding `Cn1cccc1C(=O)N[C@H]1CCc2cncn2C1`, the “% Inhibition” value is reported as -14% and the Z score was 1.82.

Take `Cc1cc(CS(=O)(=O)Cc2c(Cl)cccc2Cl)no1`: the “% Inhibition” value is given as -16% and the Z score is recorded as 2.13.

As for `CCCOc1ccc(-c2ccc(-c3nc(-c4ccc(C)cc4)no3)cc2)cc1F`, the “% Inhibition” value is -4% and the Z score was 0.46.

For `C[C@H]1CCc2sc(C(=O)N3CCc4nc(N)sc4C3)cc2C1`, the “% Inhibition” value is reported as -1% and the Z score is 0.11.

On to `Cc1ncccc1CN1C[C@H](CCN2CCCC2=O)c2ccccc21`, for which the “% Inhibition” value is given as -1% and the Z score was found to be 0.13.

For `CC(C)(C)OC(=O)NC1CCC2CN(C(=O)c3ccc[nH]3)CC21` (centres undefined), the “% Inhibition” value was -5% and the Z score worked out at 0.69.

Regarding `C[C@H]1CCCN(C(=O)c2cnc(O)c3ncccc23)C1`, the “% Inhibition” value is -19% and the Z score amounted to 2.

For the compound `Cc1cc(C(=O)NCCN2CCOCC2)on1`, the “% Inhibition” value is -4% and the Z score is 0.69.

In the case of `COc1cc(Cl)c(C)cc1NC(=O)Cn1cnc2nc(N3CCCCC3)sc2c1=O`, the “% Inhibition” value is listed as -1% and the Z score stood at 0.19.

`Cc1cc(=O)[nH]c(CCNC(=O)Nc2ccc3[nH]c(C(C)C)nc3c2)n1`: the “% Inhibition” value was -5% and the Z score amounted to 0.78.

For the compound `CC(NC(=O)CCC1CCCCO1)C1(N2CCOCC2)CCCC1` (centres undefined), the “% Inhibition” value is -3% and the Z score is 0.39.

As to `Cc1cc(-c2noc(C3CC4(CC4)C3)n2)cc(C)c1CS(N)(=O)=O`, the “% Inhibition” value was 1% and the Z score was -0.18.

Regarding `CC(C)CCN1C[C@]2(CCCN(C(=O)c3ccc(O)c(Cl)c3)C2)CCC1=O`, the “% Inhibition” value was -13% and the Z score is 1.22.

`CCCc1nnsc1C(=O)N(C)Cc1nnc(CC)o1`: the “% Inhibition” value is listed as -9% and the Z score came to 1.28.

`CCN(CC(=O)NC1(C#N)CCCC1)C[C@H](C)C(=O)OC`: the “% Inhibition” value is listed as -12% and the Z score is on record as 1.68.

For the compound `Cc1cccc(OCc2nc(CC(=O)NCc3ccco3)cs2)c1`, the “% Inhibition” value is -16% and the Z score came to 1.37.

For `CCC[C@]1(COC)CCCN1C(=O)c1cc(N2CCCC2=O)ccc1F`, the “% Inhibition” value came out at 7% and the Z score is -0.79.

As to `C[C@H](NCCOCCO)c1ncc(Br)cc1Cl`, the “% Inhibition” value is given as -4% and the Z score is 0.44.

With `CCc1ncnc(CC)c1C(=O)N1CC[C@@H]2NC(=O)OC[C@H]2C1`, the “% Inhibition” value is listed as -1% and the Z score was found to be 0.09.

For `CC(C)CC[C@H](NC(=O)CCN1C(=O)CCC1=O)C(C)(C)C`, the “% Inhibition” value was -13% and the Z score was 2.36.

Take `O=C(O)c1ccc(N2CCN(CC(=O)N3CCCC3)CC2)c(NS(=O)(=O)c2ccc(F)cc2)c1`: the “% Inhibition” value was -1% and the Z score was 0.05.

`c1cnc(N2CCC[C@H](NC3CCCC3)C2)nc1`: the “% Inhibition” value stood at 5% and the Z score is -0.55.

In the case of `COc1cc2c(cc1OC)[C@H](c1cccc(NS(C)(=O)=O)c1)OCC2`, the “% Inhibition” value is 1% and the Z score was -0.14.

Consider `CCN(CC)c1ccc(CN(CCN(C)C)C(=O)c2ccccc2C)c(OS(=O)(=O)CC)c1`, for which the “% Inhibition” value was -3% and the Z score came out at 0.65.

For `Cc1nc(C)c(F)c(N2CCN(CCc3cnccn3)CC2)n1`, the “% Inhibition” value is reported as -16% and the Z score stood at 1.91.

As to `O=S(=O)(/N=C(\c1ccc(Cl)cc1)N1CCOCC1)c1ccc(Br)cc1`, the “% Inhibition” value is on record as -4% and the Z score came out at 0.54.

As for `COc1ccc(COCC(=O)N2CCCn3ncnc32)cc1`, the “% Inhibition” value stood at 5% and the Z score is -0.57.

In the case of `CCN1CCN(c2nc3ncn(CC(=O)Nc4cc(C(F)(F)F)ccc4Cl)c(=O)c3s2)CC1`, the “% Inhibition” value is on record as 8% and the Z score is listed as -1.13.

In the case of `CC[C@H](C)NC(=O)c1ccc(C)nc1C1CCN(C(=O)c2ccoc2)CC1`, the “% Inhibition” value was -12% and the Z score is reported as 1.94.

In general, % Inhibition refers to the change of the read-out against control, counted positive when it falls.
